Results as given in article PMC4336329 (PLoS ONE, 2015).
The campaign covered roughly 310,000 compounds. About 14,000 (4.5%) showed an effect of 50% or more. The effect is printed as a negative number. The list shows a part of the results.

target: human ether-à-go-go-related gene (hERG) potassium channel (human, UniProt Q12809); assay: primary screen, population patch clamp on CHO cells stably expressing hERG
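Note: peak tail current of the secondary pulse compared with the same well before compound.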

human ether-à-go-go-related gene (hERG) potassium channel, sequence (Q12809 whole entry, looked up): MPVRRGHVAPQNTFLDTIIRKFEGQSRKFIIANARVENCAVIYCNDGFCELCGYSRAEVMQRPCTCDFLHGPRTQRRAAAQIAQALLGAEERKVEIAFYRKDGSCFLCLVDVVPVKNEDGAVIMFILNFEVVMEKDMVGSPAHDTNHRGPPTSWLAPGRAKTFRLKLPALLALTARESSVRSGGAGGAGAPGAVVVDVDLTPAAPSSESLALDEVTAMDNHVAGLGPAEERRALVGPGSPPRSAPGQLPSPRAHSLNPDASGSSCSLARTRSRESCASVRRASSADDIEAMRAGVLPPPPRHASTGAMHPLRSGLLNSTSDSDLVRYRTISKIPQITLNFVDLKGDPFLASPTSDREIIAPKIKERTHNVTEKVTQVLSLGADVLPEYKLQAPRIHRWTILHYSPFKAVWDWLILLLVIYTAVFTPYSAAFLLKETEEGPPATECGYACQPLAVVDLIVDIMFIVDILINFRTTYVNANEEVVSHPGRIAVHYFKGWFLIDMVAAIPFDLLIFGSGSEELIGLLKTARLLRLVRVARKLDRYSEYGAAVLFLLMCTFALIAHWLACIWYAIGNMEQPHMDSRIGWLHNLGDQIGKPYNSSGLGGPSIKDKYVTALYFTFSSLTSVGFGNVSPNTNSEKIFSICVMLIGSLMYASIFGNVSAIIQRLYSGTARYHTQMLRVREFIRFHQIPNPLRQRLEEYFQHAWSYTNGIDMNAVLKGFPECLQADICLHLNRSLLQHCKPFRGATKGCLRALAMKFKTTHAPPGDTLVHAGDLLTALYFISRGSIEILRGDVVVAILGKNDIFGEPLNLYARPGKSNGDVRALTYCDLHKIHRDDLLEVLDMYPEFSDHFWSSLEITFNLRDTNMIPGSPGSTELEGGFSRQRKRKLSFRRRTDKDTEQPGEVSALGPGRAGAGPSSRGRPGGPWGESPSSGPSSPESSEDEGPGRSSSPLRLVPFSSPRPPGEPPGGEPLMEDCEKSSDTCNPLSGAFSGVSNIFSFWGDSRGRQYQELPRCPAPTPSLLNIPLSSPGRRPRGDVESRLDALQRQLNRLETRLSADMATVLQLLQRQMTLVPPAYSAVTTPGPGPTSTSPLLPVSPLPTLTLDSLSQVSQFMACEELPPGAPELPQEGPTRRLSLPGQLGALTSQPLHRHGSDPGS

Compound	hERG current change (%, negative = inhibition) at 10uM [%]
Cc1ccc(Nc2nnc(SC(C)C(=O)NCC3CCCO3)s2)cc1C (stereo not drawn)	-12
CCC1CCCN1Cn1cnc2c([nH]c3ccc(OC)cc32)c1=O (stereo not drawn)	-62.6
O=c1cc(COc2ccc(Cl)c(Cl)c2)nc2sccn12	19.5
CCC(C)NC(=O)C1=CCN(S(=O)(=O)c2ccc(C)cc2)CC1 (stereo not drawn)	3.14
CN(C(=O)COC(=O)CNS(=O)(=O)/C=C/c1ccccc1)C1CCS(=O)(=O)C1 (stereo not drawn)	23.3
COc1ccc(C2CC(=O)c3cnn(-c4nc(C)cc(C)n4)c3C2)cc1OC (stereo not drawn)	-4.84
Cc1ccc(S(=O)(=O)/N=C(/Nc2ccc(F)cc2F)c2ccccc2)cc1	12.9
Cc1ccc(-n2c(C)cc(C(=O)CSc3nnc4ccccn34)c2C)cc1	-41.8
O=C(CCC(NC(=O)OCc1ccccc1)C(=O)OCc1ccccc1)NCC(=O)OCc1ccccc1 (stereo not drawn)	-12.7
CCc1cccc(CC)c1N(COC)C(=O)Cn1nnc2ccccc21	-8.6
Cc1ccc(Cn2nnnc2CN2CCC(O)(c3cccnc3)CC2)cc1.Cl	-13.9
O=C(NCCC1=CCCCC1)c1ccc(=O)oc1	-5.94
COCCOC(=O)C1=C(C)NC(=O)NC1c1ccc(-c2cc(Cl)ccc2Cl)o1 (stereo not drawn)	9.36
O=C(O)C(=O)O.c1ccc2c(OCCCCN3CCOCC3)cccc2c1	10.7
COc1ccccc1C(=O)NCCC(=O)NCCc1ccccc1	11.3
CCOC(=O)C1CCN(C(=O)CN2C(=O)c3ccccc3Sc3ncccc32)CC1	6.06
CCO[C@@H]1OC(C(=O)N2CCOCC2)=C[C@H](c2ccc(Br)cc2)[C@H]1CCCO	8.59
CCOC(=O)CC1C(=O)NCCN1C(=O)c1cccc(OC)c1 (stereo not drawn)	8.2
FC(F)(F)c1nnc2ccc(N3CCCC3)nn12	-8.5

Compound	hERG current change (%, negative = inhibition) at 10uM [%]
COCCNC(=O)c1ccc2c(c1)C(=O)c1ccccc1-2	2.22
Cc1cc(C)c(NC(=O)CSc2nnnn2-c2cccnc2)c(C)c1	-3.3
O=C(O)c1cccc(S(=O)(=O)NNc2ccccc2C(F)(F)F)c1	31.2
Cc1ccc(-c2cc(C(=O)Nc3c(C)n(C)n(-c4ccccc4)c3=O)no2)cc1	-25.3
O=C(CSc1ncnc2c1nnn2Cc1ccccc1F)NCC1CCCO1 (stereo not drawn)	-2.7
Cc1cc(C)c(NC(=O)/C(=C/c2ccco2)c2ccccc2)c(C)c1	-26.7
CC(=O)c1ccc(OCC(=O)Nc2ccc(N3CCCCC3)cc2)cc1	1.65
Fc1ccc2nc(Nc3nc4c(F)cc(F)cc4s3)sc2c1	19.7
Cc1ccc(C2=NN(C(=O)COc3ncnc4ccccc34)C(c3ccco3)C2)cc1 (stereo not drawn)	18.2
NS(=O)(=O)c1ccc(NC(=O)COc2cccc3ccccc23)cc1	18.3
COc1cc(CN2CCN(Cc3ccc(C)cc3)C(CCO)C2)ccc1O (stereo not drawn)	-19.6
CCc1ccc(/C=C2\Oc3ccc(C(=O)OC)cc3C2=O)cc1	-1.19
CCNc1nc(NCC)n2c(SCC(=O)Nc3cccc(Cl)c3)nnc2n1	-24.4
CCOC(=O)N1CCN(S(=O)(=O)c2ccc3c(c2)OCC(=O)N3)CC1	3.21
N#C/C(=C\c1c(F)cccc1Cl)S(=O)(=O)c1ccccn1	3.15
CC(C)(C)c1csc(SCC(=O)Nc2ccc(Cl)cn2)n1	-8.38
CC(N)(C(=O)O)c1cccc(OCc2cccc(Cl)c2)c1 (stereo not drawn)	10.8
COc1ccc(NC(=O)C2C(=O)N(CCO)C3(C)CC2c2ccccc2O3)cc1 (stereo not drawn)	-7.45
CCOC(=O)Cc1csc(SCC(=O)Nc2cccc(C#N)c2)n1	-7.85

Compound	hERG current change (%, negative = inhibition) at 10uM [%]
Cc1ccc(NC(=O)OCc2cncs2)cc1	2.29
O=C(NCc1cccnc1)c1ccc(=O)oc1	-8.85
COc1ccc(NC(=O)CSc2nc(=O)n(CCN(C)C)c3c2CCCC3)cc1OC	-11.5
O=C(NC1CCCCCCC1)c1ccc2c(c1)OCO2	-4.43
CC1Cc2ccccc2N1S(=O)(=O)c1cccc(C(=O)N2CCN(c3ncccn3)CC2)c1 (stereo not drawn)	-19.3
Cn1ncc(Br)c1C(=O)NC(=S)N1CCN(c2ccccn2)CC1	8.48
CSc1cccc(CN2CCC(CO)(Cc3ccccc3)CC2)c1	-44.8
O=C(CCc1nnc(Cc2ccc(-c3ccccc3)cc2)o1)NCC1CC1	-4.72
Cc1nnc(SCC(N)=O)n1CCc1ccccc1	-1.66
O=C(NN1C(=O)/C(=C/C=C/c2ccccc2)SC1=S)c1ccncc1	8.66
CCC1CCCCN1CCNC(=O)C1CCCN(S(=O)(=O)c2cccc3nsnc23)C1 (stereo not drawn)	-41.5
O=[N+]([O-])c1cccc(-c2ccc(C(=S)N3CCN(c4ccccc4)CC3)o2)c1	27.7
O=C(NCC(c1ccc(F)cc1)N1CCOCC1)c1cccnc1Sc1ccccc1 (stereo not drawn)	3.66
COC(=O)C1=C(C)Nc2ncnn2C1c1ccco1 (stereo not drawn)	6.44
CN(Cc1nc2ccccc2c(=O)[nH]1)Cc1nc2ccsc2c(=O)[nH]1	1
Cc1ccc(S(=O)(=O)N2CCCCC2)cc1NC(=O)c1ccccn1	-1.13
CC(=O)NS(=O)(=O)c1ccc(NC(=O)CCc2ccccc2)cc1	15.6
C/C(=N\NC(=S)NC1CCCCC1)c1ccc(C#N)cc1	14
CN(CC(=O)Nc1ccccc1Cl)C(=O)COC(=O)c1ccc([N+](=O)[O-])cc1Cl	-16.7
